Experimental findings from patent US20150284465A1 (Chugai, published 2015) are described below.

Test [1] deals with T1, SR344 (N-terminal 1st to 344th amino acids of soluble human IL-6R) (human, UniProt P08887 20-344, limits assumed).
T1 sequence (looked up): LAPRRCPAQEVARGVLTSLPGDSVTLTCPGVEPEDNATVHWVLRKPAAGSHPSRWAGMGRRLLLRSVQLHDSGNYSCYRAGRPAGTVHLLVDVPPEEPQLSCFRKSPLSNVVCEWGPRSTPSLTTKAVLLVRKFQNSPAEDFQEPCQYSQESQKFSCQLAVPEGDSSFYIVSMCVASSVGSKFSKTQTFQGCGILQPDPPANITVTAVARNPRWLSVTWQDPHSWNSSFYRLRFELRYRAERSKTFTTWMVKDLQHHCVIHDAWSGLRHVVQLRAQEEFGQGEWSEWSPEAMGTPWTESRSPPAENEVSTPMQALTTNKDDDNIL
Nature of the test: cell-based or functional assay.

For test [2], the target named is T1, SR344 (N-terminal 1st to 344th amino …). Briefly: SPR (Biacore T100), antibody captured on anti-IgG (γ-chain specific) F(ab')2, SR344 as analyte, pH 7.4, 37 C; determined with Fv5-IgG1. (SPR reads the build-up and loss of mass on a sensor chip optically.)
The target is the same in test [3]. Nature of the test: SPR (Biacore T100), SR344 as analyte, 37 C; determined with Fv5-IgG1.

A value given as a limit tells only on which side of the number the result lay.

As a reminder, the Kd is the constant that tells how readily two partners part at equilibrium. One may read the koff as the first-order rate constant of dissociation. Lower therefore signals a long-lived complex.

B1: Fv5-M83 (antibody, human IgG1, kappa)
heavy: QVQLQESGPGLVKPSETLSLTCAVSGYSISDDHAVSWVRQPPGEGLEWIGFISYSGITNYNPTLQDRVTISRDNSKNTLYLQMNSLRAEDTAVYYCARLLARATAMDVWGEGTLVTVSS[sequence of human IgG1 constant region with changes not given]
light: DIQMTQSPSSLSASVGDSVTITCQASQDISSYLNWYQQKPGKAPELLIYYGSELESGVPSRFSGSGSGTDFTFTISSLEAEDAATYYCGQGNRLPYTFGQGTKVEIERTVAAPSVFIFPPSDEQLKSGTASVVCLLNNFYPREAKVQWKVDNALQSGNSQESVTEQDSKDSTYSLSSTLTLSKADYEKHKVYACEVTHQGLSSPVTKSFNRGEC
Turning to B1, in test [1], the “BaF/gp130-neutralizing activity, 50% inhibitory concentration against TOCILIZUMAB” value is above 100 fold and the “BaF/gp130-neutralizing activity, 50% inhibitory concentration against the control (VQ8F11-21 hIgG1)” value is around 10 fold.

B2: Fv5-IgG1 (antibody)
heavy: QVQLQESGPGLVKPSETLSLTCAVSGYSISDDHAVSWVRQPPGEGLEWIGFISYSGITNYNPTLQDRVTISRDNSKNTLYLQMNSLRAEDTAVYYCARLLARATAMDVWGEGTLVTVSS[sequence of human IgG1 constant region not given]
light: B1 light
notes: also called VH5-IgG1/VL5-kappa
For B2, in test [2], the Kd amounted to 0.025 nM and the koff worked out at 2.8e-05 s⁻¹. The “fold higher affinity than TOCILIZUMAB” value in test [3] was around 100 fold.
